Patent US20040091495A1 (published 2004)

Molecular target: T1, complement factor H (human, UniProt P08603 19-1231, 125I-labelled (Iodobeads) in the blot and bacterial binding assays)
T1 construct: also called fH; FH
Test: competitive binding assay: 125I-fH binding to PR218 bacteria (10^9 CFU/ml) in the presence of increasing GST

T1 sequence (P08603 19-1231 limits assumed): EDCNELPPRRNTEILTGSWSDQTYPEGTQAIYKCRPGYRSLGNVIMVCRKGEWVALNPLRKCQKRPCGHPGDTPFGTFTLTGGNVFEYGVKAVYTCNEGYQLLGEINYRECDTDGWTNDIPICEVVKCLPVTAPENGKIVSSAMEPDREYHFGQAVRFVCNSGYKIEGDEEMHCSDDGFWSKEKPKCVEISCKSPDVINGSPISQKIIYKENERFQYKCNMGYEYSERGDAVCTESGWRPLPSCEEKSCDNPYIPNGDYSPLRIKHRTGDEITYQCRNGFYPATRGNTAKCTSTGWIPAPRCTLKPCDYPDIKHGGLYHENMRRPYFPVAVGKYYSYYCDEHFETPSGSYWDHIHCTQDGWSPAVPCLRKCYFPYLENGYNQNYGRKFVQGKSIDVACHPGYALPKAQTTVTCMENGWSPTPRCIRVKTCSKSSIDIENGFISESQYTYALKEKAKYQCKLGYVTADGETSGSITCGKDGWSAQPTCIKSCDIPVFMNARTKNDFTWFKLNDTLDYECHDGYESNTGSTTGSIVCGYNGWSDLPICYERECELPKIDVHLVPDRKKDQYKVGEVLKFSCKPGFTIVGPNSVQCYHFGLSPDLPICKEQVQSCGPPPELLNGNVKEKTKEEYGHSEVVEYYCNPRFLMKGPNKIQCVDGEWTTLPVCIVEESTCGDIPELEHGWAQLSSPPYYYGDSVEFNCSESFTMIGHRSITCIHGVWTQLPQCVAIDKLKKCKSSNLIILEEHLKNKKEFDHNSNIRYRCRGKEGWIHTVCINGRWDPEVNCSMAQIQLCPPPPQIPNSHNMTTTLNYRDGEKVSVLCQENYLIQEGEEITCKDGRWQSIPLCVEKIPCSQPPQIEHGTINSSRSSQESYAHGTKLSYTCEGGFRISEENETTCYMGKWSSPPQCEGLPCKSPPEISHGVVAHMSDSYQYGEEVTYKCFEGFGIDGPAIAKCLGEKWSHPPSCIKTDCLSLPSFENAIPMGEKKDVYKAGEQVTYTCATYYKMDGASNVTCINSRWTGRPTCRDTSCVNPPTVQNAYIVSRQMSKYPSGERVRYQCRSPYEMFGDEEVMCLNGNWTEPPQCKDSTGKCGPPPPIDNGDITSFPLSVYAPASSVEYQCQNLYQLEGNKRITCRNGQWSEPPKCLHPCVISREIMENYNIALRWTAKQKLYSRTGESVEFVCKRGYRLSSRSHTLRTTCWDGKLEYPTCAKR

B1: glutathione S-transferase (enzyme)
chain: not shown
notes: Control for the fusion protein; also called GST
- binding result: no binding (tested: about 140 nM)
